Where “and” joins values, the source holds several entries; their conditions need not be identical. Equal values may be shown once. The campaign covered roughly 390,000 compounds. About 1,400 (0.36%) were called active. The inconclusive results got no clear call from the source; some entries with a clear call stand among them for comparison. Calls come from the whole dose curve; as a rule, active = well fitted inhibition curve with a large enough effect; inconclusive = small, poorly fitted or top-dose-only effect; inactive = no such curve, though single readings can be large or run the other way. A potency beside an inconclusive call is a rough fit, not a confirmed value.
Molecular target: Flap endonuclease 1 (Homo sapiens) (UniProt P39748)
UniProt P39748, sequence (P39748 whole entry, looked up): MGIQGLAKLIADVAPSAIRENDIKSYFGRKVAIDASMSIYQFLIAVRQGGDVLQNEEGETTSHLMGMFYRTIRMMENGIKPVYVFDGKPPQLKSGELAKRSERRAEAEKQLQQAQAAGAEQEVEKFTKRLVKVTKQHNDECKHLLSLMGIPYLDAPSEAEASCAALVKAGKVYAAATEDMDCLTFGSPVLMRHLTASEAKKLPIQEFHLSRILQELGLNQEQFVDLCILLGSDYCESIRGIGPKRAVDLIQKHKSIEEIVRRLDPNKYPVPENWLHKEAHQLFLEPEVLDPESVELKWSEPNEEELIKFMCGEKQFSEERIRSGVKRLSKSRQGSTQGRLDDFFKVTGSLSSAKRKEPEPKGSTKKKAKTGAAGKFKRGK
Assay: qHTS Assay for the Inhibitors of Human Flap endonuclease 1 (FEN1). Note: nearly all actives have a fitted effect of over 65% in size.
Details: Recombinant FEN1 flap cleavage, fluorescence, 15 min; series mostly up to 114 µM; activity change, negative = inhibition: at the top concentration
In short: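 Reaction started by adding substrate (50 nM final) to 10 nM enzyme after 15 min room-temperature compound preincubation. Reads at 0 and 15 min, with data normalized and fitted to a four-parameter Hill equation.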
% is set by controls: 0 for no effect and ±100 for the full control effect; potency is the fitted concentration of half-maximal effect; tags give direction and shape of the fitted curve.

SMILES	Potency	activity change, negative = inhibition
COc1ccc(-c2nc(C#N)c(NC(C)c3ccccc3)o2)cc1OC (centres undefined)	inconclusive: 79.4 µM [inhibitor, partial curve, poor fit]	–
Cc1ccc(N=Nc2ccc(N)cc2C)c(S(N)(=O)=O)c1	–	inactive: -3.81%
CCOc1ccc(C(Nc2cccnc2)c2cc(Cl)c3cccnc3c2O)cc1 (centres undefined)	inconclusive: 25.1 µM [inhibitor, partial curve, poor fit]	–
Cc1cccc(C(=O)NCc2nnc(SCC(=O)NC3CCCC3)n2C)c1	–	inactive: 3.58%
CCCN1C/C(=C/c2ccc3c(c2)OCO3)C(=O)/C(=C/c2ccc3c(c2)OCO3)C1	inconclusive: 89.1 µM [inhibitor, partial curve, poor fit]	–
O=C(Nc1cccc([N+](=O)[O-])c1)c1cccc(C(=O)Nc2cccc([N+](=O)[O-])c2)c1	–	inactive: -19.9%
Cc1ccc(S(=O)(=O)N2[C@@H](c3ccc(Br)cc3)C(C(=O)O)=CC[C@H]2c2ccc(Cl)c(Cl)c2)cc1	inconclusive: 89.1 µM [inhibitor, single point]	–
c1ccc2c(NCCc3c[nH]c4ccccc34)c3ccccc3nc2c1	inconclusive: 12.6 µM [inhibitor, full curve, poor fit]	–
COc1ccc(CNC(=O)CSc2nc(-c3ccccc3)cc(-c3cccs3)c2C#N)cc1	–	inactive: 6.15%
CCOC(=O)/C=C1\CN(Cc2cc(OC)c(OC)c(OC)c2)S(=O)(=O)c2ccc(C(F)(F)F)cc21	inconclusive: 50.1 µM [inhibitor, partial curve, poor fit]	–
CCOc1ccc2[nH]c3c(NCCc4ccc(OC)c(OC)c4)ncnc3c2c1	inconclusive: 89.1 µM [inhibitor, single point]	–
CCOC(=O)Cn1c(=O)c2c(nc(N3CCOCC3)n2Cc2ccccc2)n(C)c1=O	–	inactive: -5.55%
Oc1ccc(/C=N/Nc2ncnc3c2ncn3Cc2ccccc2)cc1O	–	inactive: 1.55%
C/C=C1\COC(C(=O)NC)(C(F)(F)F)C=C1C=C1CCCCC1 (centres undefined)	–	inactive: 0.214%
Oc1c(C=C2N=c3ccccc3=N2)sc(=S)n1C1CCCCC1	inactive	–
c1ccc(-c2cn(C[C@H]3CC[C@@H]([C@@H]4CC[C@H](Cn5cc(-c6ccccn6)nn5)O4)O3)nn2)nc1	–	inactive: 6.65%
On1c(-c2ccco2)nc2c1CCc1nonc1-2	–	inactive: -4.66%
Clc1ccc2nc(Nc3ccccc3Cl)nc(-c3ccccc3)c2c1	–	inactive: -16.7%
Cc1csc2nc(CSc3ccc(Cl)cc3)cn12	–	inactive: 2.58%
Cc1ccc(S(=O)(=O)N(CC(=O)Nc2cccnc2)c2cccc(Br)c2)cc1	inconclusive: 79.4 µM [inhibitor, partial curve, poor fit]	–
COc1cc(N(C)C)c(OC)cc1/C=C1\Cc2ccccc2C1=O	inconclusive: 56.2 µM [inhibitor, partial curve]	–
COc1ccc(N2CCN(C(=O)c3ccc4c(=O)n(CCc5ccc(OC)c(OC)c5)c(=O)[nH]c4c3)CC2)cc1	inactive	–

SMILES	Potency	activity change, negative = inhibition
COc1ccc(C2CC(O)(c3ccccc3)Oc3cc(OC)c(OC)c(OC)c32)cc1 (centres undefined)	inconclusive: 50.1 µM [inhibitor, partial curve, poor fit] and inconclusive: 28.2 µM [inhibitor, partial curve, poor fit]	–
CC(C)(Sc1ccc(CCN(CCCCC2CCCCC2)C(=O)NC2CCCCC2)cc1)C(=O)O	inconclusive: 89.1 µM [inhibitor, single point]	–
O=C(COC(=O)c1ccc([N+](=O)[O-])o1)Nc1cccc2ccccc12	inconclusive: 17.8 µM [inhibitor, full curve, poor fit]	–
CSc1ccc2c(c1)N(CCC1CCCCN1C)c1ccccc1S2 (centres undefined)	inconclusive: 79.4 µM [inhibitor, partial curve, poor fit]	–
Cc1ccc(CCNc2nc3c(S(=O)(=O)c4ccccc4)nnn3c3ccsc23)cc1	active: 89.1 µM	–
C[C@H](NC(=O)OC(C)(C)C)[C@@H](O)c1ccco1	–	inactive: -1.74%
Cc1c(N=NC2=C(O)CC(C)(C)CC2=O)cc2c(c1[N+](=O)[O-])C(C)(C)CC2(C)C	inconclusive: 50.1 µM [inhibitor, partial curve, poor fit]	–
Oc1ccc(N=Nc2ccc(Br)cc2)c(O)c1	–	inactive: 3.43%
S=C(NCc1ccco1)NCc1ccco1	–	inactive: -1.14%
O=C(c1ccco1)N1CCN(c2nc(C3CC3)nc3sc4c(c23)CCCC4)CC1	inconclusive: 89.1 µM [inhibitor, partial curve, poor fit]	–
Oc1ccc(Cl)cc1C1C=C(c2ccc3c(c2)OCO3)NC(c2cc(Br)ccc2F)N1 (centres undefined)	inconclusive: 89.1 µM [inhibitor, single point]	–
CC(=O)Nc1cccc(C(=O)OC(C(=O)c2ccc(C)cc2)c2ccccc2)c1 (centres undefined)	inconclusive: 79.4 µM [inhibitor, partial curve, poor fit]	–
O=C(CNC(=O)c1ccco1)N/N=C/c1ccc(O)c([N+](=O)[O-])c1	–	inactive: -16.6%
COc1cc2c(NC3CCN(C)CC3)nc(N3CCCN(C)CC3)nc2cc1OCC1CCNCC1	active: 10 µM	–
Oc1ccccc1Cc1c(O)ccc2ccccc12	inconclusive: 89.1 µM [inhibitor, partial curve, poor fit]	–
C=CCN(c1ccccc1)S(=O)(=O)c1cc(C(=O)NC2=NCCS2)ccc1Cl	inconclusive: 79.4 µM [inhibitor, partial curve, poor fit]	–
COC(=O)/C=C1\SC(=NC(=O)c2ccc(OC)cc2)NC1=O	–	inactive: 14.5%
COc1cccc(-c2nc3c(C#N)c[nH]n3c2NC2CCCC2)c1OC	–	inactive: -20.8%
CCN(CCCNC(=O)c1cc2c(=O)n(CC)c3ccccc3c2s1)Cc1ccccc1	inconclusive: 50.1 µM [inhibitor, partial curve, poor fit]	–
O=C(Cn1cc(S(=O)(=O)N2CCCC2)c(S(=O)(=O)N2CCCC2)c1)Nc1ccc(F)cc1	–	inactive: 3.63%
O=C(Nc1ccc(S(=O)(=O)N2CCCCCC2)cc1)c1ccc(Br)o1	inconclusive: 79.4 µM [inhibitor, partial curve, poor fit]	–
CC(=O)N1CCc2c(sc3c2c(=O)n(-c2ccccc2Cl)c(=O)n3Cc2cccc(C)c2)C1	–	inactive: -7.86%

SMILES	Potency	activity change, negative = inhibition
O=C(NC(C(=O)c1ccccc1)c1ccccc1)c1ccccc1 (centres undefined)	inconclusive: 89.1 µM [inhibitor, partial curve, poor fit]	–
CCOC(=O)N1CCN(S(=O)(=O)c2ccc(C(=O)N(CCCN(C)C)c3nc4c(C)c(C)ccc4s3)cc2)CC1	inconclusive: 28.2 µM [inhibitor, partial curve, poor fit]	–
CC1CCCN(C(=S)SCC(=O)c2cc(Br)cc(Br)c2O)C1 (centres undefined)	active: 50.1 µM	–
CC1=CC2=C(OC1N(C)C)c1cccc3cccc(c13)C2=O (centres undefined)	inconclusive: 79.4 µM [inhibitor, partial curve, poor fit]	–
Cc1cccc(-c2nc3scc(CCNS(=O)(=O)c4ccc(F)cc4C)n3n2)c1	inconclusive: 79.4 µM [inhibitor, partial curve, poor fit]	–
CCOC(=O)c1cc(-c2ccccc2)sc1NC(=O)CN1C(=O)NC(CC)(c2ccccc2)C1=O (centres undefined)	–	inactive: -9.76%
CCOC(=O)c1sc2nc3c(SCCC(=O)O)cc(C(=O)c4cc(OC)ccc4O)cn3c(=O)c2c1C	inconclusive: 79.4 µM [inhibitor, partial curve, poor fit]	–
CN(C)c1ccc(/C=C2/CCCc3c2nc2ccccc2c3C(=O)O)cc1	inconclusive: 89.1 µM [inhibitor, partial curve, poor fit]	–
CCCSc1ccc([C@@H]2[C@@H]3C(=O)N(C)C(=O)[C@@H]3[C@]3(C(=O)OC)CCCCN23)cc1OC	inconclusive: 89.1 µM [inhibitor, partial curve, poor fit]	–
COc1cc2c(NC3CCN(C)CC3)nc(N3CCCN(C)CC3)nc2cc1OCCCN1CCOCC1	active: 22.4 µM	–
Cc1ccc(C2(C)NC(=O)N(CC(=O)NCCN3C(=O)S/C(=C\c4cccnc4)C3=O)C2=O)cc1 (centres undefined)	inconclusive: 100 µM [inhibitor, partial curve, poor fit]	–
CCN(CC)c1ccc(/C=C/c2c(C)cnc3ccccc23)cc1	–	inactive: -21.9%
O=C(CSCc1ccc(Cl)cc1)Nc1ccc(S(=O)(=O)N2CCCCCC2)cc1	inconclusive: 70.8 µM [inhibitor, partial curve, poor fit]	–
Cc1cccc(N(CC(=O)N=Nc2c(O)[nH]c3ccccc23)S(C)(=O)=O)c1C	inconclusive: 89.1 µM [inhibitor, partial curve, poor fit]	–
O=C(Nc1ccc(Cl)cc1)c1nc[nH]c1C(=O)NCc1ccccc1	inconclusive: 89.1 µM [inhibitor, partial curve, poor fit]	–
O=C(O)c1c[nH]c2ccc(S(=O)(=O)N3CCN(c4ccc(F)cc4)CC3)cc2c1=O	inconclusive: 79.4 µM [inhibitor, partial curve]	–
COCc1ccc(CN2CCC(C(=O)Nc3cccc(-c4cccc(Cl)c4)c3)CC2)o1	inconclusive: 44.7 µM [inhibitor, partial curve, poor fit]	–
CCCCCn1c(CCCNC(=O)c2cccc(C)c2)nc2ccccc21	inconclusive: 89.1 µM [inhibitor, single point]	–
NC(=S)N=Nc1c(O)[nH]c2c(Cl)cc(Cl)cc12	inconclusive: 44.7 µM [inhibitor, partial curve, poor fit]	–
CCSC1=NSC2=NC(=O)/C(=C\c3coc4ccccc4c3=O)C(=N)N12	inconclusive: 50.1 µM [inhibitor, partial curve]	–
